Reference: PubChem BioAssay AID485294 (National Center for Advancing Translational Sciences (NCATS), 2010)
Among all 370,000 compounds or so, about 150 (0.041%) were called active. The shares of active, inactive and inconclusive entries below differ from those in the screen. Calls follow the shape of the dose curve; as a rule, active = well fitted inhibition curve with a large enough effect; inconclusive = small, poorly fitted or top-dose-only effect; inactive = flat fitted curve, though single readings scatter. No potency is given beside an inconclusive call; the fits are too rough.

Molecular target: Beta-lactamase (Escherichia coli (strain K12)) (UniProt P00811)
Sequence of UniProt P00811 (P00811 whole entry, looked up): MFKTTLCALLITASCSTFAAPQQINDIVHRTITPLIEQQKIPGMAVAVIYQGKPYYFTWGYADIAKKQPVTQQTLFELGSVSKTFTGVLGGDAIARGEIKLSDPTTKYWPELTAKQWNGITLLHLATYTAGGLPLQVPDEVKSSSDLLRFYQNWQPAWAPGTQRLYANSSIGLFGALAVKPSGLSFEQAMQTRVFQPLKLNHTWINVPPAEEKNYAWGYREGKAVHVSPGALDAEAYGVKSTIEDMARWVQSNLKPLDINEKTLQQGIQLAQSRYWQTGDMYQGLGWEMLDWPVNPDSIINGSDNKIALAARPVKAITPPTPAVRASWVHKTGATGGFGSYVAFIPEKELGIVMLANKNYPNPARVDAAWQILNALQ
Assay: qHTS Inhibitors of AmpC Beta-Lactamase (assay with detergent); also: nearly all actives have a fitted effect of over 25% in size;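 as to activity change, negative = inhibition: 0% = no-compound wells and -100% = no-enzyme wells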
Conditions: AmpC hydrolysis of nitrocefin, absorbance 480 nm, 0.01% Triton; activity change, negative = inhibition: at 114 µM (top of the series)
Method in brief: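 20 mM phosphate pH 7.0 + 0.01% (detergent screen) or 0.0001% Triton X-100; 5.3 nM AmpC reagent; cpd preinc 15 min RT; nitrocefin (800 uM stock) to start; A480 q20 s × 4 min; Activity was normalised to no-enzyme and no-compound control wells.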
Potency is read from the fitted curve at half-maximal effect; tags tell the direction and shape of the fitted curve.

SMILES | Potency | activity change, negative = inhibition
Cc1nnc2n(c1=O)C(CS(=O)(=O)c1ccccc1)CS2 (stereo unspecified) | inconclusive [inhibitor, full curve] | 
O=C(Nc1c(S(=O)(=O)c2ccc(Cl)cc2)csc1Br)c1ccccc1Cl |  | inactive: -0.935%
COc1ccc(C(=O)CC(=O)O)c2c1C=CC(C)(C)O2 | inconclusive [inhibitor, partial curve] | 
O=C(O)CC(CNS(=O)(=O)c1ccccc1)c1ccccc1 (stereo unspecified) | inconclusive [inhibitor, full curve, poor fit] | 
CCCn1c(NCc2ccccn2)nc2ccccc21 | inconclusive [inhibitor, single point] | 
COc1cccc(N2CC(C(=O)N3CCC4(CC3)CC(=O)c3ccccc3O4)CC2=O)c1 (stereo unspecified) |  | inactive: 0.519%
CN=C1C([N+](=O)[O-])=CC=C2C1=NC1(CCCCC1)N2O |  | inactive: 11.9%
CCOC(=O)CN1N=C(/C=C/c2ccc(C(C)C)cc2)CCC1=O |  | inactive: 5.72%
CCOC(=O)NS(=O)(=O)c1ccc(CCNC(=O)c2cc(C)on2)cc1 | inconclusive [inhibitor, partial curve] | 
CC(C)n1c(SCCCc2ccccc2)nc2c1c(=O)[nH]c(=O)n2C | inconclusive [inhibitor, full curve, poor fit] | 
Cc1ccc(OCC(=O)OC2=C(C(=O)c3ccccc3)N(C)S(=O)(=O)c3ccccc32)cc1 |  | inactive: 30.9%
Clc1ccc(N=C2SCCS2)cc1 |  | inactive: 1.77%
Fc1ccc(N/N=C/c2ccncc2)c(F)c1 |  | inactive: -11.4%
Cc1nc2ccccc2nc1OCc1ccccc1 | inconclusive [inhibitor, full curve] | 
O=C(N/N=C/c1cc([N+](=O)[O-])ccc1O)C12CC3CC(CC(C3)C1)C2 |  | inactive: 5.49%
CCN(CC)Cc1c(O)ccc2c(=O)c(-c3ccccc3Cl)coc12 | inconclusive [inhibitor, partial curve, poor fit] | 
CCN(CC)S(=O)(=O)c1ccc(Cl)c(NC(=O)COC(=O)C2CCCCC2)c1 | inconclusive [inhibitor, full curve, poor fit] | 
Cc1ccc(CNC(=O)C2COc3ccccc3C2)cc1 (stereo unspecified) |  | inactive: 14.5%
COc1ccc(-c2ccnc(-c3ccc(O)cc3)n2)cc1 |  | inactive: 15.7%
CC(C)(C)OC(=O)N1Cc2ccccc2C[C@H]1C(=O)O | inconclusive [inhibitor, partial curve, poor fit] | 
COc1ccccc1Cn1c(/C=C/c2ccccc2)nc2ccccc21 |  | inactive: 7.01%
COc1ccc(CCNC(=O)CCS(=O)(=O)c2cc(Br)cc3c2N(C(C)=O)CC3)cc1OC | inconclusive [inhibitor, single point] | 
COc1cccc(-c2nnc(SCC(=O)Nc3cc(C)on3)o2)c1 | inconclusive [inhibitor, partial curve, poor fit] | 

SMILES | Potency | activity change, negative = inhibition
COc1cc(CC2C(=O)Nc3ccccc32)cc(C)c1O (stereo unspecified) |  | inactive: -7.61%
CCN(CC(=O)Nc1c(F)cccc1F)C(=O)c1ccc(=O)n(Cc2ccccc2)n1 | inconclusive [inhibitor, single point] | 
COc1ccc(N2C(=O)N(Cc3ccccc3F)c3ccccc3S2(=O)=O)cc1 | inconclusive [inhibitor, partial curve, poor fit] | 
O=C(COC(=O)c1ccccc1)NCCC1=CCCCC1 | inconclusive [inhibitor, full curve, poor fit] | 
Cc1cccc(NC(=O)COC(=O)c2cccc3c2C(=O)c2ccccc2C3=O)c1C | inconclusive [inhibitor, partial curve, poor fit] | 
CCOc1ccc(NC(=S)NNC(=O)c2cc(Br)ccc2Cl)cc1 |  | inactive: -9.65%
CCN(CC(=O)Nc1ccccc1OC)C(=O)C1CCC1 | inconclusive [inhibitor, full curve, poor fit] | 
O=C(Nc1ccc(-c2csc(Nc3ccccc3)n2)cc1)c1ccccc1 | inconclusive [inhibitor, partial curve] | 
Cc1ccccc1C(=O)Nc1ccc2nc(SCC(=O)N3CCc4ccccc43)sc2c1 |  | inactive: 3.44%
CC1Sc2ccc(S(=O)(=O)CCC(=O)Nc3ccccn3)cc2NC1=O (stereo unspecified) | inconclusive [inhibitor, partial curve] | 
C=CCn1c(N2CCOCC2)nc2c1c(=O)[nH]c(=O)n2C | inconclusive [inhibitor, full curve] | 
CCOC(=O)c1ccc(S(=O)(=O)Nc2nc3cc(S(=O)(=O)NC4=NCCCCC4)ccc3s2)cc1 |  | inactive: -5.71%
O=C(c1cc2ccccc2oc1=O)N(Cc1cccs1)Cc1cccs1 | inconclusive [inhibitor, partial curve, poor fit] | 
COc1ccc(CNc2cc(C)nc3ccc(OC)cc23)cc1 |  | inactive: 1.22%
Cc1ccc(OCC(=O)N2CCN(C(=O)c3cccs3)CC2)cc1 | inconclusive [inhibitor, full curve, poor fit] | 
O=C(Nc1ccc(Cc2ccncc2)cc1)c1cccs1 |  | inactive: 6.77%
COc1ccccc1C(=O)Nc1nnc(-c2ccccc2)s1 | inconclusive [inhibitor, partial curve] | 
COc1ccc(OC)c(S(=O)(=O)Nc2ccc(-c3ccc4nncn4n3)cc2)c1 |  | inactive: -16.2%
COc1ccc(C2C(C#N)=C(N)OC(C(C)(C)C)=C2C#N)cc1OC (stereo unspecified) | inconclusive [inhibitor, partial curve, poor fit] | 
O=C(CSc1ncccc1-c1nc2ccccc2[nH]1)N1CCN(c2ccccc2F)CC1 |  | inactive: 0.818%
COc1ccc(CCN2CC(C(=O)N3CCC(OC)CC3)CCC2=O)cc1 (stereo unspecified) | inconclusive [inhibitor, full curve, poor fit] | 
CCC(=O)c1ccc(OCC(=O)OCC(=O)N2c3ccccc3NC(=O)C2(C)C)cc1 | inconclusive [inhibitor, full curve] | 
Cc1cc(C)cc(Nc2nc(-c3ccc(S(=O)(=O)N4CCCC4)cc3)cs2)c1 | inconclusive [inhibitor, full curve, poor fit] | 
